From publication PMC12143593, “Selective engineering of condensation properties of single-stranded DNA binding (SSB) protein via its intrinsically disordered linker region” (Nucleic Acids Research, 2025) come the findings set out here.

To fix the notation:
B1: EcSSB R116D–W136D (natural protein)
chain: not shown
notes: E. coli SSB (EcSSB) with two aspartates introduced in the IDL; not shown: His6, N-terminal, cleaved

What all share (conditions): both partners purified
In one assay the target is T1, RecQ helicase (UniProt P15043 1-609).
T1 construct: RecQ helicase, a key partner of EcSSB; the discussion gives 82 kDa for RecQ helicase
As to the kind of experiment: fluorescence polarisation; competitive: RecQ–flCTP mixture (0.65 uM RecQ, 25 nM flCTP) titrated with EcSSB constructs (tetramer concentrations); 25°C; 20 mM Tris–acetate pH 8, 50 mM K-glutamate, 10 mM Mg-acetate; competitive binding scheme.

For assay [1], the target named is T2, wild-type Escherichia coli single-stranded DNA binding protein (EcSSB) (Escherichia coli, UniProt P0AGE0).
T2 construct: Homotetramer; also called WT; WT EcSSB; not shown: His6, N-terminal, cleaved
As to the kind of experiment: fluorescence polarisation; competitive: dC (2.5 uM tetramer) complexed with 25 nM flCTP, titrated with EcSSB constructs (tetramer concentrations); 25°C; 20 mM Tris–acetate pH 8, 50 mM K-glutamate, 10 mM Mg-acetate; competitive binding scheme.

Assay [2] has as its target T3, EcSSB d1G (aa 114-120 deleted) (Escherichia coli, UniProt P0AGE0, aa 114–120 deleted).
T3 construct: E. coli SSB (EcSSB) lacking the first glycine-rich motif GGRQGGG of the IDL; not shown: His6, N-terminal, cleaved
Described as above.

The assay “EcSSB R116D–W136D” deals with B1. The description is as above.

RecQ helicase, sequence (P15043 whole entry): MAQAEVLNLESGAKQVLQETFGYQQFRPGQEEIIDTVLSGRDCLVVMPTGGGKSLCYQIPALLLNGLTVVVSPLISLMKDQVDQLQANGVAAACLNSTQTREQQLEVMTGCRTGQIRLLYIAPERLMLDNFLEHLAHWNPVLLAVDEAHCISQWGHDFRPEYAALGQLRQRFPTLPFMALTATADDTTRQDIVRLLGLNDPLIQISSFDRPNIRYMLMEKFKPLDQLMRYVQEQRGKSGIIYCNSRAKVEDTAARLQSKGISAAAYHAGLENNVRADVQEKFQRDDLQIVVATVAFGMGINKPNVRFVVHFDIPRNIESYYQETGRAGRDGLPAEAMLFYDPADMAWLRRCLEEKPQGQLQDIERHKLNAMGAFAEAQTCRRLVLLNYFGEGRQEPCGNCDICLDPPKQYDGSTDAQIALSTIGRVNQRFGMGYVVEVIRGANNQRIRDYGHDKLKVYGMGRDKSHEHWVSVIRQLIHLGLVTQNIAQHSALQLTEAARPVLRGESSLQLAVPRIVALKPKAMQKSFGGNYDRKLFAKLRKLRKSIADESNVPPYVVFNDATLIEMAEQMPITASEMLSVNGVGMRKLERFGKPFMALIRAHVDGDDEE

For B1, the Kd with RecQ helicase stood at 17 nM.

B2: EcSSB dC (construct lacking the CTP, […]) (domain or fragment)
chain: not shown
notes: E. coli SSB (EcSSB) lacking the C-terminal peptide, […]
With B2, the Kd in assay [1] was 2500 nM; in assay [2], 220 nM; in the assay with EcSSB R116D–W136D it was 2500 nM.

B3: EcSSB W136D (natural protein)
chain: not shown
notes: E. coli SSB (EcSSB) with an aspartate introduced in the IDL; not shown: His6, N-terminal, cleaved
For B3, the Kd with RecQ helicase was determined as 29 nM.
